# Assay results: the supplement of paper PMC4604168 (melanoma cell lines)
# The list shows a part of the results. Most values come without repeats; read them as rough.
# Columns and labels:
# Experiment in all cases: cell count relative to DMSO control; melanoma cells; higher = more viable cells
# Settings in all cases: library dose: low library concentration; 72 h
# MZ2-MEL = system: MZ2-MEL
# MeWo = system: MeWo
# RPMI7951 = system: RPMI7951
# RVH-421 = system: RVH-421
# SkMel28 = system: SkMel28
# SkMel2 = system: SkMel2
# SkMel30 = system: SkMel30
# UACC62 = system: UACC62
# WM115 = system: WM115
# WM1716 = system: WM1716
# WM1745 = system: WM1745
# WM3526 = system: WM3526
# WM3619 = system: WM3619
# WM451Lu = system: WM451Lu
# SkMel5 = system: SkMel5
# UACC257 = system: UACC257
# 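Note: cell number obtained by counting DAPI-stained nuclei in high-throughput microscope images with image analysis software, screen run in 1,536-well plates.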
SMILES,cell count (MZ2-MEL),cell count (MeWo),cell count (RPMI7951),cell count (RVH-421),cell count (SkMel28),cell count (SkMel2),cell count (SkMel30),cell count (UACC62),cell count (WM115),cell count (WM1716),cell count (WM1745),cell count (WM3526),cell count (WM3619),cell count (WM451Lu),cell count (SkMel5),cell count (UACC257)
"Cn1cnc2c(F)c(Nc3ccc(Br)cc3Cl)c(C(=O)NOCCO)cc21 [selumetinib] + COc1ccc(Cl)c(Nc2nc3ccccc3nc2NS(=O)(=O)c2cccc(NC(=O)C(C)(C)N)c2)c1 [XL147] (first compound 0.015 µM, partner dose 0.8 µM)",92.9%,86.3%,116%,62.5%,86.6%,77.1%,69.5%,69.9%,96.2%,102%,86.1%,82%,74.4%,95.2%,,
"Cn1cnc2c(F)c(Nc3ccc(Br)cc3Cl)c(C(=O)NOCCO)cc21 [selumetinib] + CS(=O)(=O)CCNCc1ccc(-c2ccc3ncnc(Nc4ccc(OCc5cccc(F)c5)c(Cl)c4)c3c2)o1 [lapatinib] (first compound 0.015 µM, partner dose 0.8 µM)",86.4%,89.3%,113%,79.9%,71.1%,77.3%,59%,66.4%,83.5%,120%,103%,77.4%,60.9%,105%,,
"C[C@]1(O)C[C@@H](c2nc(-c3ccc4ccc(-c5ccccc5)nc4c3)c3c(N)nccn32)C1 + CC(C)C[C@H](NC(=O)[C@H](Cc1ccccc1)NC(=O)c1cnccn1)B(O)O [Bortezomib] (first compound 0.4 µM, partner dose 0.001 µM)",89.2%,101%,82.9%,86.4%,89%,85.8%,96%,87.2%,98.2%,84.2%,54.4%,103%,60.3%,85%,,
"COc1cc([C@@H]2c3cc4c(cc3[C@@H](O[C@@H]3O[C@@H]5CO[C@@H](C)O[C@H]5[C@H](O)[C@H]3O)[C@H]3COC(=O)[C@H]23)OCO4)cc(OC)c1O [etoposide] + Cc1cc(Nc2cc(N3CCN(C)CC3)nc(/C=C/c3ccccc3)n2)n[nH]1 [ENMD2076] (first compound 0.02 µM, partner dose 0.04 µM)",96.2%,90.9%,102%,79.6%,87%,99.1%,101%,82.7%,77.3%,89.7%,113%,102%,86.6%,89%,,
"CCN(CC)CCNC(=O)c1c(C)[nH]c(/C=C2\C(=O)Nc3ccc(F)cc32)c1C [sunitinib] + CC(=O)O[C@@]12CO[C@@H]1C[C@H](O)[C@@]1(C)C(=O)[C@H](O)C3=C(C)[C@@H](OC(=O)[C@H](O)[C@@H](NC(=O)OC(C)(C)C)c4ccccc4)C[C@@](O)([C@@H](OC(=O)c4ccccc4)[C@H]21)C3(C)C [Docetaxel] (first compound 0.4 µM, partner dose 0.0001 µM)",43.4%,48.5%,46.1%,96.4%,56.5%,47.9%,30.5%,55.3%,70.7%,55.5%,67.6%,48.8%,89.4%,65.1%,,
"Cn1cnc2c(F)c(Nc3ccc(Br)cc3Cl)c(C(=O)NOCCO)cc21 [selumetinib] + C[C@@H](Oc1cc(-c2cnn(C3CCNCC3)c2)cnc1N)c1c(Cl)ccc(F)c1Cl [Crizotinib] (first compound 0.015 µM, partner dose 0.2 µM)",93.8%,94.4%,99%,76.8%,94.2%,66.1%,69.8%,68.9%,91.6%,116%,83.3%,83.6%,99.1%,126%,,
"Cn1cnc2c(F)c(Nc3ccc(Br)cc3Cl)c(C(=O)NOCCO)cc21 [selumetinib] + C[C@]1(c2nc3c(C(N)=O)cccc3[nH]2)CCCN1 [Veliparib] (first compound 0.015 µM, partner dose 1.4 µM)",93.6%,92.3%,104%,96.9%,66.7%,85.9%,66.9%,72.1%,79.9%,102%,90.4%,53.5%,82.2%,130%,,
"Cn1cnc2c(F)c(Nc3ccc(Br)cc3Cl)c(C(=O)NOCCO)cc21 [selumetinib] + COc1cc(N2CCC(N3CCN(C)CC3)CC2)ccc1Nc1ncc(Cl)c(Nc2ccccc2S(=O)(=O)C(C)C)n1 [NVP-TAE684] (first compound 0.015 µM, partner dose 0.08 µM)",,89.3%,118%,90.9%,85.1%,60%,52.9%,64.6%,81.2%,85%,114%,67.7%,88.1%,93.6%,94.2%,79.6%
"Cn1cnc2c(F)c(Nc3ccc(Br)cc3Cl)c(C(=O)NOCCO)cc21 [selumetinib] + C=C(c1ccc(C(=O)O)cc1)c1cc2c(cc1C)C(C)(C)CCC2(C)C [Bexarotene] (first compound 0.015 µM, partner dose 2 µM)",,83.7%,100%,84.6%,72.3%,,72.3%,65.1%,94.4%,99.2%,86%,60.8%,74.1%,79.8%,,
"COc1cc([C@@H]2c3cc4c(cc3[C@@H](O[C@@H]3O[C@@H]5CO[C@@H](C)O[C@H]5[C@H](O)[C@H]3O)[C@H]3COC(=O)[C@H]23)OCO4)cc(OC)c1O [etoposide] + CCCCCCCCCCCC1=C(O)C(=O)C=C(O)C1=O [Embelin] (first compound 0.02 µM, partner dose 1.2 µM)",106%,107%,88.8%,99.3%,101%,95.4%,,96.2%,73.1%,96.8%,88.6%,108%,91.6%,109%,115%,97.7%
"C[C@]1(O)C[C@@H](c2nc(-c3ccc4ccc(-c5ccccc5)nc4c3)c3c(N)nccn32)C1 + Cn1cc(/C=C2\C(=O)Nc3cccnc32)c2ccccc21 [GW441756] (first compound 0.4 µM, partner dose 0.4 µM)",,93.1%,99.4%,86.3%,74.4%,,81.3%,92.8%,106%,111%,75%,82.5%,90%,120%,77.5%,62.8%
"Cn1cnc2c(F)c(Nc3ccc(Br)cc3Cl)c(C(=O)NOCCO)cc21 [selumetinib] + O=C(O)c1ccc2c(c1)nc(Nc1cccc(Cl)c1)c1ccncc12 [CX4945] (first compound 0.015 µM, partner dose 0.4 µM)",,86.1%,102%,90.6%,94.9%,,53.1%,71.4%,78.5%,108%,102%,66.6%,53.7%,123%,,
"COc1cc([C@@H]2c3cc4c(cc3[C@@H](O[C@@H]3O[C@@H]5CO[C@@H](C)O[C@H]5[C@H](O)[C@H]3O)[C@H]3COC(=O)[C@H]23)OCO4)cc(OC)c1O [etoposide] + O=c1cc(-c2cccc3c2Sc2ccccc2S3)oc(N2CCOCC2)c1 [KU55933] (first compound 0.02 µM, partner dose 1 µM)",,90.4%,99.2%,123%,117%,,98.6%,102%,89.7%,87.5%,86.6%,80.9%,85.3%,100%,96.7%,97.8%
"C[C@]1(O)C[C@@H](c2nc(-c3ccc4ccc(-c5ccccc5)nc4c3)c3c(N)nccn32)C1 + Nc1nc(F)nc2c1ncn2[C@@H]1O[C@H](CO)[C@@H](O)[C@@H]1O [fludarabine] (first compound 0.4 µM, partner dose 0.2 µM)",,38.3%,90.9%,104%,77.6%,,14.9%,73.7%,91.7%,101%,70.1%,26.4%,83.4%,44%,,
"COc1cc([C@@H]2c3cc4c(cc3[C@@H](O[C@@H]3O[C@@H]5CO[C@@H](C)O[C@H]5[C@H](O)[C@H]3O)[C@H]3COC(=O)[C@H]23)OCO4)cc(OC)c1O [etoposide] + Cc1cn(-c2cc(NC(=O)c3ccc(C)c(Nc4nccc(-c5cccnc5)n4)c3)cc(C(F)(F)F)c2)cn1 [nilotinib] (first compound 0.02 µM, partner dose 0.2 µM)",,87.5%,89%,80.5%,78.6%,,92.8%,86.2%,94.7%,84.7%,81.2%,112%,86%,88.9%,,
"COc1cc([C@@H]2c3cc4c(cc3[C@@H](O[C@@H]3O[C@@H]5CO[C@@H](C)O[C@H]5[C@H](O)[C@H]3O)[C@H]3COC(=O)[C@H]23)OCO4)cc(OC)c1O [etoposide] + CS(=O)(=O)CCNCc1ccc(-c2ccc3ncnc(Nc4ccc(OCc5cccc(F)c5)c(Cl)c4)c3c2)o1 [lapatinib] (first compound 0.02 µM, partner dose 0.8 µM)",91.6%,91.5%,88.2%,89%,80.4%,94.8%,92.5%,74.5%,92.6%,88.3%,82.1%,82.1%,,98.3%,,
"CCN(CC)CCNC(=O)c1c(C)[nH]c(/C=C2\C(=O)Nc3ccc(F)cc32)c1C [sunitinib] + CS(=O)(=O)CCNCc1ccc(-c2ccc3ncnc(Nc4ccc(OCc5cccc(F)c5)c(Cl)c4)c3c2)o1 [lapatinib] (first compound 0.4 µM, partner dose 0.8 µM)",,83.5%,90.8%,109%,87.6%,,53.4%,88.6%,100%,126%,93.1%,84.5%,136%,97.9%,,
"C[C@]1(O)C[C@@H](c2nc(-c3ccc4ccc(-c5ccccc5)nc4c3)c3c(N)nccn32)C1 + CO[C@H]1C[C@@H]2CC[C@@H](C)[C@@](O)(O2)C(=O)C(=O)N2CCCC[C@H]2C(=O)O[C@H]([C@H](C)C[C@@H]2CC[C@@H](OCCO)[C@H](OC)C2)CC(=O)[C@H](C)/C=C(\C)[C@@H](O)[C@@H](OC)C(=O)[C@H](C)C[C@H](C)/C=C/C=C/C=C/1C [everolimus] (first compound 0.4 µM, partner dose 0.02 µM)",52%,63.7%,76.5%,85.9%,38.5%,,40.8%,48.6%,88.6%,79.2%,67.9%,43.9%,47.4%,72.8%,,
